{
  "source": "PubChem BioAssay AID651711",
  "about": "(Broad Institute, 2012)",
  "note": "In all, about 350,000 compounds went through this assay and about 180 (0.051%) were called active. The inconclusive results got no clear call from the source; some entries with a clear call stand among them for comparison.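 Rule for the calls: active = mean replicate inhibition above about 25%, with every replicate also reaching it (limit read from the data, passing the limit was not always enough); inconclusive = only one of those two criteria met; inactive = neither criterion met.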",
  "data": [
    {"molecular_target": "Protein disulfide-isomerase A6 (Homo sapiens) (UniProt Q15084)", "sequence (Q15084 whole entry, looked up)": "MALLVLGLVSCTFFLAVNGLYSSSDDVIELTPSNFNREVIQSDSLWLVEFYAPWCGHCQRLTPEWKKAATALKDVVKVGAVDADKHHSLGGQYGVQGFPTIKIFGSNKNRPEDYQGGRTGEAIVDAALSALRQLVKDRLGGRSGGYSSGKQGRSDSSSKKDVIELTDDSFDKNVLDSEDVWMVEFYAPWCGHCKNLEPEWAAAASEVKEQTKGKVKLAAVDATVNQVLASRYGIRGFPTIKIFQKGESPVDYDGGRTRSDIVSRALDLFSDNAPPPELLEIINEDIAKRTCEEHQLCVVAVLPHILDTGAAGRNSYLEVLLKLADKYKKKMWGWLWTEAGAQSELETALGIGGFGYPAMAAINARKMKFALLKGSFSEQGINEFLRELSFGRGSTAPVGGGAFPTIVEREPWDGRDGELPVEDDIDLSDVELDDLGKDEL", "assay": "inhibitors of ERp5-driven insulin aggregation, primary screen, biochemical, turbidity, absorbance 650 nm, single point (AID 651711)", "conditions": "90 min, at 9.99 µM, stronger effect = higher value", "values": [
      {"smiles": "CCc1ccc(/C=C/c2c([N+](=O)[O-])c(=O)n(C)c(=O)n2C)cc1", "inhibition": "inconclusive: 61%"},
      {"smiles": "CC(=O)NC1C(=O)N(Cc2ccccc2)c2ccc(Br)cc21", "note": "(stereo not drawn)", "inhibition": "inconclusive: 41.6%"},
      {"smiles": "CCOc1cc(/C=C/c2ccc3cccc([N+](=O)[O-])c3n2)ccc1O", "inhibition": "inconclusive: 43.4%"},
      {"smiles": "O=C(C1CC1)N1CC[C@@H]2[C@@H](CO)Nc3ccc(Br)cc3[C@@H]21", "inhibition": "inconclusive: 39.7%"},
      {"smiles": "O=C(Cn1cnc2ccccc21)Nc1ccc(F)c(F)c1", "inhibition": "inconclusive: 38.1%"},
      {"smiles": "N#Cc1ccc(/C=C/C(=O)c2ccc3c(c2)OCO3)cc1", "inhibition": "inconclusive: 39.5%"},
      {"smiles": "C[C@H]1CN([C@@H](C)CO)C(=O)c2cc(-c3cccc(C#N)c3)cnc2O[C@@H]1CN(C)Cc1cncnc1", "inhibition": "active: 33.8%"},
      {"smiles": "CCN(CC)c1ccc(C(=C2C=CC(=[N+](CC)CC)C=C2)c2ccccc2)cc1", "inhibition": "inactive: 12.3%"},
      {"smiles": "O=C(N/N=C/c1ccccc1)c1cc(=O)[nH]c2ccccc12", "inhibition": "inconclusive: 47.9%"},
      {"smiles": "COc1ccccc1NC(=O)CSc1nc(O)c(Cc2ccccc2)c(=O)[nH]1", "inhibition": "inconclusive: 54.2%"},
      {"smiles": "CCn1nc(C)c(CNC(=O)CC2C(=O)NCCN2CC(C)C)c1C", "note": "(stereo not drawn)", "inhibition": "inconclusive: 44.3%"},
      {"smiles": "Cc1nnc2c3ccccc3c(Cl)nn12", "inhibition": "inconclusive: 44.9%"},
      {"smiles": "CC1=CC(C)(C)NC(=O)N1c1ccc(C)cc1", "inhibition": "inconclusive: 51%"},
      {"smiles": "COc1cc(S(=O)(=O)N2CC(=O)Nc3ccccc32)ccc1NC(C)=O", "inhibition": "inconclusive: 25.4%"},
      {"smiles": "O=C(COC(=O)CCc1nc2ccccc2c(=O)[nH]1)Nc1c(Cl)cccc1C(F)(F)F", "inhibition": "active: 26.2%"},
      {"smiles": "O=C(NCCc1ccc(Cl)cc1)c1cc2ccccn2n1", "inhibition": "inconclusive: 36.1%"},
      {"smiles": "O=C(Cc1cccs1)NCCc1csc(-c2ccccc2)n1", "inhibition": "inconclusive: 30.4%"},
      {"smiles": "Cc1ccc(C=NNc2nc3c([nH]2)c(=O)n(C)c(=O)n3C)cc1", "inhibition": "inactive: -6.12%"},
      {"smiles": "COCCCN1C(=O)C(=O)/C(=C(/O)c2ccc(OC)cc2)C12C(=O)N(C)c1ccccc12", "note": "(stereo not drawn)", "inhibition": "inconclusive: 25.5%"},
      {"smiles": "COCC(=O)Nc1ccc2c(c1)C(=O)N(C)C[C@H](OC)[C@H](C)CN(C(=O)NC(C)C)[C@H](C)CO2", "inhibition": "inactive: -4.72%"},
      {"smiles": "CCSC1=NCCN1S(=O)(=O)c1ccc(Cl)cc1", "inhibition": "inactive: 0.16%"},
      {"smiles": "COc1ccccc1-c1ccc([C@@H]2[C@@H](CO)N3CCCCN(C(=O)NC4CCCC4)C[C@H]23)cc1", "inhibition": "inconclusive: 25.3%"},
      {"smiles": "C[C@H](O)C#Cc1ccc2c(c1)O[C@H](CN(C)C(=O)c1ccccc1)[C@@H](C)CN([C@H](C)CO)S2(=O)=O", "inhibition": "inactive: -1.63%"},
      {"smiles": "C[C@@H]1CN([C@H](C)CO)C(=O)c2cc(C#Cc3ccccc3F)cnc2O[C@@H]1CN(C)C(=O)C1CCCCC1", "inhibition": "inactive: -3.09%"},
      {"smiles": "C[C@@H](NC(=O)C[C@@H]1C=C[C@H](NC(=O)C2CCOCC2)[C@@H](CO)O1)c1ccccc1", "inhibition": "inactive: -2.78%"},
      {"smiles": "CCN1CCCC(NC(=O)c2scc3c2CCCC3)C1", "note": "(stereo not drawn)", "inhibition": "inconclusive: 27.7%"},
      {"smiles": "Fc1ccc(CSc2nnc3ccccn23)c(Cl)c1", "inhibition": "inconclusive: 56.6%"},
      {"smiles": "CCN(CC)S(=O)(=O)c1cc(NC(=O)c2ccc(-n3cncn3)c([N+](=O)[O-])c2)ccc1C", "inhibition": "active: 25.5%"},
      {"smiles": "C[C@H]1CCCCO[C@H](CN(C)S(=O)(=O)c2cccs2)[C@@H](C)CN([C@@H](C)CO)C(=O)c2cc(NC(=O)CCCN(C)C)ccc2O1", "inhibition": "inactive: 3.1%"},
      {"smiles": "C[C@@H]1CN([C@H](C)CO)C(=O)c2cccc(NC(=O)Nc3ccc4c(c3)OCO4)c2O[C@H]1CN(C)Cc1ccc(Oc2ccccc2)cc1", "inhibition": "active: 32.3%"},
      {"smiles": "C/C=C/c1cccc(-c2nc(C(=O)NCCC)cc3c2[C@@H](CCO)N([S@](=O)C(C)(C)C)C3)c1", "inhibition": "inactive: 6.41%"},
      {"smiles": "Oc1ccc(/C=N/N2CCN(c3ccccn3)CC2)cc1", "inhibition": "inconclusive: 36.4%"},
      {"smiles": "Cc1ccc(NC(=O)c2cccs2)cc1S(=O)(=O)N(C)C", "inhibition": "inconclusive: 49.5%"},
      {"smiles": "C[C@@H](O)C#Cc1ccc2c(c1)O[C@H](CN(C)C(=O)C1CCCCC1)[C@@H](C)CN([C@@H](C)CO)S2(=O)=O", "inhibition": "inactive: 7.77%"},
      {"smiles": "O=C(O)c1cccc(-n2c(-c3cnccn3)n[nH]c2=S)c1", "inhibition": "inconclusive: 45.6%"},
      {"smiles": "OC1CCCN(C(=S)NCc2ccccc2)C1", "note": "(stereo not drawn)", "inhibition": "inconclusive: 39.8%"},
      {"smiles": "O=C(c1cccc(F)c1)N1CC2(C1)[C@H](c1ccccc1)[C@@H](CO)N2C(=O)C1CCC1", "inhibition": "inactive: -4.63%"},
      {"smiles": "C[C@@H]1CN([C@H](C)CO)C(=O)c2cc(NS(=O)(=O)c3ccc(Cl)cc3)ccc2O[C@H]1CN(C)CC1CC1", "inhibition": "inactive: 3.63%"},
      {"smiles": "Cc1cc(C)nc(NC2=N[C@@H]3CCCC[C@H]3N2C(=O)Nc2cc(Cl)cc(Cl)c2)n1", "inhibition": "inconclusive: 41.7%"},
      {"smiles": "Cc1cc([N+](=O)[O-])ccc1NC(=O)Cc1ccc(F)cc1", "inhibition": "inconclusive: 26%"},
      {"smiles": "Cc1sc(NC(=O)c2ccco2)c(C(c2cccnc2)N2CCN(CCO)CC2)c1C", "note": "(stereo not drawn)", "inhibition": "inconclusive: 43.1%"},
      {"smiles": "CC(=O)Nc1ccc(NC(=O)C(C)OC(=O)c2ccc(C)s2)cc1", "note": "(stereo not drawn)", "inhibition": "inconclusive: 44.6%"},
      {"smiles": "Cc1ccccc1OCC(O)Cn1c2ccccc2c2ccccc21", "note": "(stereo not drawn)", "inhibition": "inconclusive: 42.8%"},
      {"smiles": "Cc1nc(/C(N)=N/OC(=O)c2cccc(Cl)c2)c(C(F)(F)F)o1", "inhibition": "inactive: 5.8%"},
      {"smiles": "O=S(=O)(NCc1csc(-c2cccs2)n1)c1ccccc1", "inhibition": "inconclusive: 33.9%"},
      {"smiles": "COc1ccc(C)c2sc(=NC(=O)c3cccc(N4C(=O)CCC4=O)c3)n(C)c12", "inhibition": "inconclusive: 39.1%"},
      {"smiles": "Cc1cccc2sc(NS(C)(=O)=O)nc12", "inhibition": "inconclusive: 42.5%"},
      {"smiles": "Cc1ccc(C)c(NC(=O)C(NCC(C)(C)N2CCOCC2)c2ccccc2)c1", "note": "(stereo not drawn)", "inhibition": "inconclusive: 37.2%"},
      {"smiles": "O=C(O)c1ccccc1NS(=O)(=O)c1cccc2nsnc12", "inhibition": "inactive: -4.88%"},
      {"smiles": "CN(C(=O)c1cc2c(s1)-c1ccccc1S(=O)(=O)C2)c1ccccc1F", "inhibition": "inconclusive: 45.9%"},
      {"smiles": "C[C@@H]1CN([C@H](C)CO)C(=O)c2ccccc2-c2ccccc2CO[C@@H]1CN(C)Cc1ccc(C(F)(F)F)cc1", "inhibition": "inactive: 0.034%"},
      {"smiles": "COc1ccc(C2CCCN2C(=S)Nc2ccc(C)cc2C)cc1OC", "note": "(stereo not drawn)", "inhibition": "inconclusive: 40.6%"},
      {"smiles": "O=Cc1cc(N=Nc2ccccc2Cl)ccc1O", "inhibition": "inconclusive: 42.8%"},
      {"smiles": "CNc1cncc(-c2ccc(F)cc2F)n1", "inhibition": "inactive: 7.17%"},
      {"smiles": "Cc1c(CN2CCc3c([nH]c4ccccc34)C2CC(C)C)cnn1C", "note": "(stereo not drawn)", "inhibition": "inconclusive: 47.9%"},
      {"smiles": "CC(C)C#Cc1cnc2c(c1)C(=O)N([C@@H](C)CO)C[C@@H](C)[C@H](CN(C)C(=O)c1ccccc1F)O2", "inhibition": "active: 32.2%"},
      {"smiles": "C[C@@H]1CN([C@H](C)CO)C(=O)Cc2cc(NS(=O)(=O)c3ccc(Cl)cc3)ccc2O[C@H]1CN(C)CC1CCCCC1", "inhibition": "inactive: 0.416%"},
      {"smiles": "O=S(=O)(Nc1cccc(S(=O)(=O)N2CCOCC2)c1)c1ccc(Cl)s1", "inhibition": "inconclusive: 26.4%"},
      {"smiles": "C[C@@H]1CN([C@@H](C)CO)C(=O)c2cc(C#CC3CCCC3)cnc2O[C@@H]1CN(C)C(=O)Nc1ccccc1", "inhibition": "inactive: 0.755%"},
      {"smiles": "C[C@@H]1CN([C@@H](C)CO)C(=O)c2cc(NC(=O)Nc3ccc4c(c3)OCO4)ccc2O[C@@H]1CN(C)Cc1ccc(C(=O)O)cc1", "inhibition": "active: 39.5%"},
      {"smiles": "COc1ccc(-c2ncncc2-c2ccc(Cl)cc2)c(O)c1", "inhibition": "inconclusive: 40.6%"},
      {"smiles": "COc1nc(Nc2nc3ccccc3c(=O)[nH]2)nc2ccc(C)cc12", "inhibition": "inactive: 21.4%"},
      {"smiles": "CNC[C@@H]1Oc2ccc(NC(=O)Nc3cccc4ccccc34)cc2C(=O)N([C@H](C)CO)C[C@@H]1C", "inhibition": "inactive: -0.402%"},
      {"smiles": "O=C(C[C@H]1C=C[C@@H](NC(=O)Nc2ccccc2)[C@@H](CO)O1)NCc1ccccn1", "inhibition": "inconclusive: 25.4%"},
      {"smiles": "C[C@@H](NC(=O)C[C@@H]1CC[C@H](NC(=O)C2CCC2)[C@H](CO)O1)c1ccccc1", "inhibition": "inactive: -3.16%"},
      {"smiles": "C[C@@H]1CN([C@H](C)CO)S(=O)(=O)c2ccc(/C=C/c3ccccc3)cc2O[C@H]1CN(C)C", "inhibition": "inconclusive: 46.1%"},
      {"smiles": "CCOc1ccc(-c2[nH]nc3c2C(c2ccc(O)cc2)C(C#N)=C(N)O3)cc1", "note": "(stereo not drawn)", "inhibition": "inactive: 1.83%"},
      {"smiles": "Cc1cc(OCCn2ccnc2)cc(C(C)C)c1", "inhibition": "inconclusive: 25.2%"},
      {"smiles": "Cc1noc(C)c1NC(=O)N(C)C[C@@H]1Oc2ccc(NC(=O)NC(C)C)cc2C(=O)N([C@@H](C)CO)C[C@@H]1C", "inhibition": "inactive: 6.28%"},
      {"smiles": "CCCCNC(=O)C1C(c2ccccc2)=Nc2ccccc2N1C(=O)c1ccc2c(c1)OCO2", "note": "(stereo not drawn)", "inhibition": "inactive: 5.79%"},
      {"smiles": "C[C@H](CO)N1C[C@H](C)[C@@H](CN(C)Cc2ccncc2)OCCCC[C@H](C)Oc2ccc(NC(=O)NC3CCCCC3)cc2C1=O", "inhibition": "inactive: 0.351%"},
      {"smiles": "N#C/C(=C\\c1cn(Cc2cccc(F)c2)c2ccccc12)C(=O)NCc1ccco1", "inhibition": "inconclusive: 39.6%"},
      {"smiles": "O=C(C[C@H]1C[C@@H]2c3cc(NC(=O)NC4CCCC4)ccc3O[C@@H]2[C@@H](CO)O1)NCc1ccc2c(c1)OCO2", "inhibition": "inactive: -1.93%"},
      {"smiles": "CCOC(=O)N1CCN(C(=O)CSc2ccc3nnc(-c4ccncc4)n3n2)CC1", "inhibition": "inactive: 0.163%"},
      {"smiles": "Fc1ccccc1-c1nc(-c2ccc(-c3nn[nH]n3)cc2)no1", "inhibition": "inactive: -4.35%"},
      {"smiles": "NC(=O)COC(=O)c1c2c(nc3ccccc13)CCC2", "inhibition": "inconclusive: 44.7%"},
      {"smiles": "Cc1ccc(S(=O)(=O)N(C)C[C@H]2OCCCC[C@@H](C)Oc3ccc(NS(=O)(=O)c4ccc(Cl)cc4)cc3C(=O)N([C@@H](C)CO)C[C@@H]2C)cc1", "inhibition": "inactive: 2.36%"},
      {"smiles": "CC1CCN(CCC(=O)NN)CC1", "inhibition": "inconclusive: 43.6%"}
    ]}
  ]
}
